According to the supplement of paper PMC11417369:
Some of the results follow.

Tested on: PfAP2-HC AP2 domain (GST-tagged)
Experiment: gcPBM binding intensity (ln(normalized median fluorescence intensity)); higher = stronger DNA binding
Summary of the method: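 GST-tagged P. falciparum DNA-binding domains, expressed in E. coli (about 25 μg on average), were applied for 1 h to an Agilent 4 × 180k array of primer-extended double-stranded 36-bp intergenic genomic probes plus negative controls. The binding buffer was 1× PBS with 1% milk, 0.2 mg/ml BSA, 0.5% salmon testes DNA and 0.03% Triton X-100. Bound protein was detected with Alexa488 anti-GST antibody and scanned at 488 nm. Binding intensity is the highest Masliner-normalised natural-log median intensity across replicate spots of either probe orientation.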

Sequence | gcPBM binding intensity (ln)
ATGTATCATAAGAACTGTGTGGTTACAGACACGAAC [GTGCAC_negctrl_site416] | 9.98
TACTATGCCCCATATAAACACACAAATAAAAAGAAT [CACACA_site8857] | 9.85
TATAAACCTACATACACACATACAATAAGTAAAATG [CACACA_site1921] | 10
AACTATATATATAATTCACACATGTTTTAAAATTTT [CACACA_site4971] | 9.82
TATAATTAATTAGAAGTGCATTAGGTAACAACTGTC [GTGCAC_site9746] | 9.68
CTATGCATTTATAGTGCATGTAAAATATAAGATAAT [TGCATGCA_site71] | 9.58
AACGCAGTTTAATATACACACCAAAAAAAAAAAAAG [CACACA_site5643] | 9.66
TTTCCTTTTTTAATATGTACACATATTATTATATCT [XGTACX_site3079] | 9.85
ATATATTCTTATTGCTGTACACATATTTTCTAAAAA [XGTACX_site4851] | 9.69
TGTTACATATTATAAATACATTAACTATTATATGTA [CACACA_negctrl_site1735] | 9.49
TATATATATATATATTGTACATATTGTATATATTGT [XGTACX_site3212] | 9.6
TTTATAAAAAATTTTTTTTTTTTTTTTTAAATATAT [CACACA_negctrl_site146] | 9.29
TATATATATATTTATACACACATTAGTGTATCCATG [CACACA_site5609] | 10.3
TTATATTAAACAAACACACACATATATATATATATA [CACACA_site2382] | 9.88
TTAACAAATGGACACACACACACACCCAAAAAAAAA [CACACA_site4443] | 10.7
TTATTTTTTCAAGAATGTACTTACGAATTGTCGTAT [XGTACX_site1363] | 9.51
ATCAATACACATATATGTACATATAATAATTATCTT [XGTACX_site662] | 9.78
CAAAAAAACAAACACACACACACACCCATATATATA [CACACA_site3653] | 11.5
TAATTACCATATGGTACACACATATATATATGTATA [CACACA_site3487] | 9.93
TTTTTTTTTTGTAGTTGTACGAACTAGCTATTTATG [XGTACX_site692] | 9.62
TTGGCATACAGACACACACACACACGCCCACATATA [CACACA_site6425] | 10.7
ATATATATATATATATGTACATATATATATTTTTTA [XGTACX_site5987] | 10.1
TTTTTTTTTTATTCTACACACATATGTTTTTATATG [CACACA_site182] | 10

Sequence | gcPBM binding intensity (ln)
TATATATATATATGTTGTACTTTTAATTTAAATGTA [XGTACX_site4239] | 9.43
TGTTATTAAAACGTGACACACAATATATATATATAT [CACACA_site3539] | 9.73
TTTTTTTTTTTTTTTTGTACACATAGTAAAAATTAA [XGTACX_site2410] | 9.19
TTTTTTTTTAAGCAAAGGAAATCAAAATAAAAATAT [CACACA_negctrl_site719] | 9.3
TTATAAATTATATATATGACCAATAATTGTGAGCAT [CACACA_negctrl_site725] | 9.53
AAATAGGGAATTTATGCACACAGTTAAGGGGGAAAA [CACACA_site2071] | 10.1
ATATATTATTATATATGTACTTATTTATAAATGATT [XGTACX_site7597] | 9.47
AATAAATTAATAAGGTGTACATAAATAATTTATATA [XGTACX_site8278] | 9.72
TAAATATAAACACAAACACACACATATATATATATA [CACACA_site7978] | 10.3
ATTCAAAAGGTTTAATGTACGTGATGTTTCACAAAT [XGTACX_site784] | 9.55
CATACTCTACATAGATGTACTCATTTAAAAAAAAAA [XGTACX_site6945] | 9.38
ATTTTTTTTTTTTTTTTTTTTTTTTTCTCTCTCACT [CACACA_negctrl_site1046] | 9.22
ATAGAAGGACATATAACACACATATATTATAAGTAT [CACACA_site5461] | 10
TGTCGACATGTAGGTAGTACTATTAAAAATAATGAT [XGTACX_site3849] | 9.6
AAATATATATATATAATACACACTAAAGTAACATAA [CACACA_site2870] | 10
GGATGATTAAGGGGGACACACGTTTATATATTTATA [CACACA_site4342] | 9.91
TTTATATTTCTCTTTAGTACATATTATATTCTTTTA [XGTACX_site1618] | 9.72
AATGAAAATAAATTAACACACAATTTTAATATTGTT [CACACA_site1306] | 9.62
TGATAGCTAGCTATATGTACATATATATATATATAT [XGTACX_site393] | 9.54
CTTTCGGTTGGAGAGGTGCGCTTCTCCTTTATAATA | 9.61
TACACAAAATTTAAATGTACATTAAATATATGATGT [XGTACX_site2140] | 9.56
AAACATCATAAATATACACACATATATATATATATA [CACACA_site620] | 9.67
ATTTATCTATAATATACACACATATAACAGACATAT [CACACA_site6469] | 9.87

Sequence | gcPBM binding intensity (ln)
AAAACGTATCACAAAAGTACAGATAGTTATAATATA [XGTACX_site185] | 9.77
CGAAACCATATGTACACACACATATATAAATATGTA [CACACA_site7082] | 9.95
ATATATCAACTCATATTATTTTCTTTTATTATTTAT [CACACA_negctrl_site276] | 9.75
GTATACTTAACATTCACACATATATATATATATAAA [CACACA_site4596] | 9.63
AATTATTTACCTTCTTTGAAAGAACAAATGATACAA [CACACA_negctrl_site1315] | 9.48
ATATATATATATATATGTACTTATAATTCTTCAATT [XGTACX_site5627] | 9.47
ATTTATAATCTGTATAGTACACATATATACATGGTT [XGTACX_site2714] | 9.78
CTAAAACAATAAATCACACATACATAGGATAATATA [CACACA_site4247] | 9.81
TCTTAAATATACAGTTGTACTAAACAAAAAAAAAAA [XGTACX_site2639] | 9.65
TATAAAAAATGATAAAGTACTTTATACACACAAATA [XGTACX_site8486] | 9.83
AAAATATACACACATATGTATATAATATTATATGTA [GTGCAC_negctrl_site496] | 9.96
ATGTAGATATATATCTGTACGTATATGTAAATATTA [XGTACX_site1516] | 9.84
ACACATTATAACAAGGTGCAATTTTTATACACATGT [GTGCAC_site9866] | 10.2
TATATAAAACCTTATTGTACTATTAGACTATGCTTA [XGTACX_site6026] | 9.51
CAAATATCTATTTAGTGTACTAATATATTCAATAAT [XGTACX_site2345] | 9.45
ACAAAGACAATTTTGTTATATATAAAAAAAAAAAAT [CACACA_negctrl_site253] | 9.58
ATTAATTTTCCATTCACACATATATATATATATATA [CACACA_site6065] | 9.75
ATAGCATATATTTTTTGTACATATGTTATATATATA [XGTACX_site2184] | 9.66
TACAAATATATATGCACACACATATCTGTATATGTG [CACACA_site5663] | 10.1
GAAAAAAAAAAAAATACACACAAATTGGTATATAAC [CACACA_site6315] | 9.96
GCTATAATAAAATTTAAACACACGTAATATAATATA [CACACA_site2592] | 9.65
AAAATTTCATAAAGACGTACTATAAAAATAAAATTA [XGTACX_site4182] | 9.62
AAAAATTCTTGGCGCACACACTTTAAAAGTTAAAAA [CACACA_site6430] | 9.88

Sequence | gcPBM binding intensity (ln)
GTATATTTCTTTAAATGTACACATTTTTTTAAAGAG [XGTACX_site1225] | 9.42
AATTGTATAAATGGAATAATGACTATGATTATACAT [GTGCAC_negctrl_site188] | 9.84
TATAAAAAATATCCTTTTTTTATACATCAATATATA [TGCATGCA_negctrl_site291] | 9.37
CACTAATAGTGGATTACACACATATAGATGTATATA [CACACA_site7234] | 9.66
AAAATAAGCGTGAAACGTACATATTACATTATTATA [XGTACX_site8914] | 9.74
TATTAAAAGAAAATAACACACACAAAAAAAAAAAAA [CACACA_site8661] | 10.1
ATAATATATATATAGTGTACATTTGAATATATTTGA [XGTACX_site583] | 9.7
AAAAAAAACAGACACACACACAAATATATAAAAATA [CACACA_site1172] | 10.6
TTTTTGAAATAATGAAACAGCAAAAAAACAAAAATA [CACACA_negctrl_site221] | 9.6
AAGGTCATTTTATATTGTACATGAAATTGTTATGTA [XGTACX_site187] | 9.58
TCAATTTGGAACGGTATGCACTAATTTTATATTTTT | 9.77
ATATATTTTGTATGTAGTACAATTTTATAATCATAT [XGTACX_site8373] | 9.61
AATAATGAATACACATGTACAAAAATTTTTCTTACT [XGTACX_site1962] | 9.75
TATTACAAATATGGCACACATATATATATATATATT [CACACA_site3268] | 9.79
ATATACAGATAAATGTGTACTTAAATCTATTATATT [XGTACX_site2632] | 9.65
TTTTAAAATATCAACACACTCATTATTTTCTATATT [CACACA_site4740] | 9.78
AAAATAAAAACAAAATCACACATTCCAGTTTTTTTT [CACACA_site5356] | 9.66
TCATTCTATCTGTTCACACATACACAAAAAAAAAAA [CACACA_site5141] | 9.47
TATATACATGTGAGAGTGCATATAGACATAAAAAAT | 9.95
AAAATTTTCTTTTTATGTACACATAATTTTACCGGA [XGTACX_site5276] | 9.5
